# Measurements published in the supplement of paper PMC8728848.
# The other results are listed elsewhere or left out.
# What was measured:
# Assay in all cases: glycan array binding signal (z-score within array); higher = stronger binding
# Details in all cases: glycan notation: IUPAC condensed, linker removed
# [1] = target: Neu5Ac(a2-6)Gal(b1-4)GlcNAc(b1-2)Man(a1-3)[GlcNAc(b1-4)][Neu5Ac(a2-6)Gal(b1-4)GlcNAc(b1-2)Man(a1-6)]Man(b1-4)GlcNAc(b1-4)GlcNAc
# Procedure, shortened: (§1)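 Arrays were curated from the Consortium for Functional Glycomics database, 3228 in total, and kept only where the protein sequence was available. Binding is expressed as a within-array Z-score. This score was averaged across arrays of the same protein sequence at different concentrations or buffers and across linkers, and negative values can be read as non-binding.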
# [2] = target: Neu5Ac(a2-6)Gal(b1-4)GlcNAc(b1-2)Man(a1-3)[Man(a1-6)]Man(b1-4)GlcNAc(b1-4)GlcNAc
# Procedure, shortened: as §1
# [3] = target: Neu5Ac(a2-6)Gal(b1-4)GlcNAc(b1-2)Man(a1-3)[Neu5Ac(a2-3)Gal(b1-4)GlcNAc(b1-2)Man(a1-6)]Man(b1-4)GlcNAc(b1-4)GlcNAc
# Procedure, shortened: as §1
# [4] = target: Neu5Ac(a2-6)Gal(b1-4)GlcNAc(b1-2)Man(a1-3)[Neu5Ac(a2-6)Gal(b1-4)GlcNAc(b1-2)Man(a1-6)]Man(b1-4)GlcNAc(b1-4)GlcNAc
# Procedure, shortened: as §1
# [5] = target: Neu5Ac(a2-6)Gal(b1-4)GlcNAc(b1-2)Man(a1-3)[Neu5Ac(a2-6)Gal(b1-4)GlcNAc(b1-2)Man(a1-6)]Man(b1-4)GlcNAc(b1-4)[Fuc(a1-6)]GlcNAc
# Procedure, shortened: as §1
# [6] = target: Neu5Ac(a2-6)Gal(b1-4)GlcNAc(b1-2)Man(a1-6)Man(b1-4)GlcNAc(b1-4)GlcNAc
# Procedure, shortened: as §1
# [7] = target: Neu5Ac(a2-6)Gal(b1-4)GlcNAc(b1-2)Man(a1-6)[Gal(b1-4)GlcNAc(b1-2)Man(a1-3)]Man(b1-4)GlcNAc(b1-4)GlcNAc
# Procedure, shortened: as §1
# [8] = target: Neu5Ac(a2-6)Gal(b1-4)GlcNAc(b1-2)Man(a1-6)[GlcNAc(b1-2)Man(a1-3)]Man(b1-4)GlcNAc(b1-4)GlcNAc
# Procedure, shortened: as §1
# [9] = target: Neu5Ac(a2-6)Gal(b1-4)GlcNAc(b1-2)Man(a1-6)[Man(a1-3)]Man(b1-4)GlcNAc(b1-4)GlcNAc
# Procedure, shortened: as §1
# [10] = target: Neu5Ac(a2-6)Gal(b1-4)GlcNAc(b1-2)[Neu5Ac(a2-6)Gal(b1-4)GlcNAc(b1-4)]Man(a1-3)[GlcNAc(b1-4)][Neu5Ac(a2-6)Gal(b1-4)GlcNAc(b1-2)[Neu5Ac(a2-6)Gal(b1-4)GlcNAc(b1-6)]Man(a1-6)]Man(b1-4)GlcNAc(b1-4)GlcNAc
# Procedure, shortened: as §1
# [11] = target: Neu5Ac(a2-6)Gal(b1-4)GlcNAc(b1-2)[Neu5Ac(a2-6)Gal(b1-4)GlcNAc(b1-4)]Man(a1-3)[GlcNAc(b1-4)][Neu5Ac(a2-6)Gal(b1-4)GlcNAc(b1-4)Man(a1-6)]Man(b1-4)GlcNAc(b1-4)GlcNAc
# Procedure, shortened: as §1
# [12] = target: Neu5Ac(a2-6)Gal(b1-4)GlcNAc(b1-2)[Neu5Ac(a2-6)Gal(b1-4)GlcNAc(b1-6)]Man(a1-6)[Neu5Ac(a2-6)Gal(b1-4)GlcNAc(b1-2)Man(a1-3)][GlcNAc(b1-4)]Man(b1-4)GlcNAc(b1-4)GlcNAc
# Procedure, shortened: as §1
# [13] = target: Neu5Ac(a2-6)Gal(b1-4)GlcNAc(b1-3)Gal(b1-3)GlcNAc
# Procedure, shortened: as §1
# [14] = target: Neu5Ac(a2-6)Gal(b1-4)GlcNAc(b1-3)Gal(b1-4)GlcNAc
# Procedure, shortened: as §1
# [15] = target: Neu5Ac(a2-6)Gal(b1-4)GlcNAc(b1-3)Gal(b1-4)GlcNAc(b1-2)Man(a1-3)[Neu5Ac(a2-6)Gal(b1-4)GlcNAc(b1-3)Gal(b1-4)GlcNAc(b1-2)Man(a1-6)]GalNAc
# Procedure, shortened: as §1
# [16] = target: Neu5Ac(a2-6)Gal(b1-4)GlcNAc(b1-3)Gal(b1-4)GlcNAc(b1-3)Gal(b1-4)GlcNAc
# Procedure, shortened: as §1
# [17] = target: Neu5Ac(a2-6)Gal(b1-4)GlcNAc(b1-3)Gal(b1-4)GlcNAc(b1-3)Gal(b1-4)GlcNAc(b1-2)Man(a1-3)[Neu5Ac(a2-6)Gal(b1-4)GlcNAc(b1-3)Gal(b1-4)GlcNAc(b1-3)Gal(b1-4)GlcNAc(b1-2)Man(a1-6)]GalNAc
# Procedure, shortened: as §1
# [18] = target: Neu5Ac(a2-6)Gal(b1-4)GlcNAc(b1-3)Gal(b1-4)GlcNAc(b1-3)GalNAc
# Procedure, shortened: as §1
# [19] = target: Neu5Ac(a2-6)Gal(b1-4)GlcNAc(b1-3)Gal(b1-4)GlcNAc(b1-3)[Neu5Ac(a2-6)Gal(b1-4)GlcNAc(b1-3)Gal(b1-4)GlcNAc(b1-6)]GalNAc
# Procedure, shortened: as §1
# [20] = target: Neu5Ac(a2-6)Gal(b1-4)GlcNAc(b1-3)Gal(b1-4)GlcNAc(b1-6)[Gal(b1-3)]GalNAc
# Procedure, shortened: as §1
# [21] = target: Neu5Ac(a2-6)Gal(b1-4)GlcNAc(b1-3)Gal(b1-4)[Fuc(a1-3)]GlcNAc(b1-3)Gal(b1-4)[Fuc(a1-3)]GlcNAc
# Procedure, shortened: as §1
# [22] = target: Neu5Ac(a2-6)Gal(b1-4)GlcNAc(b1-3)GalNAc
# Procedure, shortened: as §1
# [23] = target: Neu5Ac(a2-6)Gal(b1-4)GlcNAc(b1-3)[Neu5Ac(a2-6)Gal(b1-4)GlcNAc(b1-6)]GalNAc
# Procedure, shortened: as §1
# [24] = target: Neu5Ac(a2-6)Gal(b1-4)GlcNAc(b1-6)GalNAc
# Procedure, shortened: as §1
# [25] = target: Neu5Ac(a2-6)Gal(b1-4)GlcNAc(b1-6)[Gal(b1-3)GlcNAc(b1-3)]Gal(b1-4)Glc
# Procedure, shortened: as §1
# [26] = target: Neu5Ac(a2-6)Gal(b1-4)GlcNAc(b1-6)[Gal(b1-3)]GalNAc
# Procedure, shortened: as §1
# [27] = target: Neu5Ac(a2-6)Gal(b1-4)GlcNAc6S
# Procedure, shortened: as §1
# Neu5Ac(a2-6)GalNAc = target: Neu5Ac(a2-6)GalNAc
# Procedure, shortened: as §1
# [28] = target: Neu5Ac(a2-6)GalNAc(b1-4)GlcNAc
# Procedure, shortened: as §1
# [29] = target: Neu5Ac(a2-6)GalNAc(b1-4)GlcNAc6S
# Procedure, shortened: as §1
# [30] = target: Neu5Ac(a2-6)GlcNAc(b1-4)GlcNAc
# Procedure, shortened: as §1
binder,measurement,setting,value
"HML-Native (Hypnea musciformis), P84871 (protein) QKFCTLDIAPVCCQIVIGGGMYTAGNACMCEGFVSGVGRCENPKECPCTREAQIPSCCSSRWGLVSVTGKCACDCLGGTVAFPEPCPSPY",glycan array binding signal (z-score),[1],-0.244
same,glycan array binding signal (z-score),[2],-0.166
same,glycan array binding signal (z-score),[3],-0.139
same,glycan array binding signal (z-score),[4],-0.15
same,glycan array binding signal (z-score),[5],5.65
same,glycan array binding signal (z-score),[6],-0.291
same,glycan array binding signal (z-score),[7],-0.223
same,glycan array binding signal (z-score),[8],-0.302
same,glycan array binding signal (z-score),[9],-0.314
same,glycan array binding signal (z-score),[10],-0.321
same,glycan array binding signal (z-score),[11],-0.353
same,glycan array binding signal (z-score),[12],-0.283
same,glycan array binding signal (z-score),[13],-0.237
same,glycan array binding signal (z-score),[14],-0.307
same,glycan array binding signal (z-score),[15],-0.17
same,glycan array binding signal (z-score),[16],-0.271
same,glycan array binding signal (z-score),[17],-0.022
same,glycan array binding signal (z-score),[18],-0.182
same,glycan array binding signal (z-score),[19],-0.128
same,glycan array binding signal (z-score),[20],-0.205
same,glycan array binding signal (z-score),[21],-0.17
same,glycan array binding signal (z-score),[22],-0.248
same,glycan array binding signal (z-score),[23],-0.207
same,glycan array binding signal (z-score),[24],-0.15
same,glycan array binding signal (z-score),[25],-0.274
same,glycan array binding signal (z-score),[26],-0.239
same,glycan array binding signal (z-score),[27],-0.335
same,glycan array binding signal (z-score),Neu5Ac(a2-6)GalNAc,-0.337
same,glycan array binding signal (z-score),[28],-0.39
same,glycan array binding signal (z-score),[29],-0.338
same,glycan array binding signal (z-score),[30],-0.259
